Results reported in the supplement of paper PMC7826260.
Some of the results follow. Cleavage of a single-stranded DNA pool by Rep nickase domains was read by sequencing at 3 µM enzyme and 37 °C for 1 h; the strands have 90 letters, of which the middle is given. Values are log2 of uncut reads against the no-enzyme pool; strong cutting gives strongly negative numbers. There is no active / inactive call. Counts are relative to all reads, so uncut sequences can rise above 0 when many others are cut.

system: T1, Rep nickase domain of tomato golden mosaic virus; assay: uncleaved DNA left, log2 of reads against the no-enzyme library (log2 ratio); higher = less cleavage (more negative = more Rep cleavage of the k-mer); sequences stand for … in CTCGTCCG…ACCGGAGA
T1 sequence (residues 1-124, tag not shown): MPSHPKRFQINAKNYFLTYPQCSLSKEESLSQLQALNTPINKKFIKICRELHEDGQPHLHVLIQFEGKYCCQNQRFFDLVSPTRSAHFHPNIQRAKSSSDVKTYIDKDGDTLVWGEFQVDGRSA
Method: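 A pool of 90-nt single-stranded DNAs with seven random bases just before the constant AC of the nick site (name = the seven bases) was cut by 3 µM recombinant His6-SUMO-tagged Rep nickase domain (300 nM DNA, 50 mM HEPES pH 8.0, 50 mM NaCl, 1 mM MnCl2, 1 h, 37 °C, three replicates). Uncut DNA was amplified and sequenced.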

Row | Sequence | uncleaved DNA left (log2)
1 | AATGTGT | -0.0616
2 | GCCATCG | 0.00238
3 | CTATTCG | -0.218
4 | ATTATAA | 0.0454
5 | CCCCTCG | -0.0655
6 | CATTACC | -0.0131
7 | TGATCTC | 0.0328
8 | ATAATCC | 0.0505
9 | TGTTAGG | 0.189
10 | TCTGATT | -0.219
11 | TAAATAT | -3.18
12 | GAGATGG | 0.118
13 | TCTGCCA | -0.179
14 | GAGCTCT | 0.0584
15 | ACGGTTA | 0.145
16 | ACCAGCA | 0.000932
17 | CGTTCAT | -0.0594
18 | ACTCAAT | 0.0844
19 | CTCGGAA | 0.0364
20 | GACCAGC | 0.0504

Row | Sequence | uncleaved DNA left (log2)
21 | CGTGCTT | -0.0777
22 | GGTCAGC | 0.186
23 | TGAGAAG | 0.116
24 | ACAGACA | 0.0507
25 | ATTGGGA | 0.0986
26 | GGGAACT | -0.0704
27 | CCGTTCC | -0.0628
28 | AACCCGT | -0.00201
29 | ATTTCGT | -0.142
30 | CATCCGA | -0.0654
31 | AGTCAGA | 0.0225
32 | ATTGCTT | 0.0517
33 | GCCGATG | 0.0245
34 | AGAAGGT | 0.0353
35 | TTCTGCC | -0.0277
36 | CAAGTCT | -0.228
37 | CACATGG | -0.0927
38 | AAAACTC | -0.0236
39 | CCCACCG | -0.0156
40 | GTGCACT | 0.0101
